Results reported in PubChem BioAssay AID1159614 (National Center for Advancing Translational Sciences (NCATS), 2016).
Hit rate of the full screen: of about 45,000 compounds, about 65 (0.1%) were called active. Calls follow the shape of the dose curve; as a rule, active = well fitted activation curve with a large enough effect; inconclusive = small, poorly fitted or top-dose-only effect; inactive = no such curve, though single readings can be large or run the other way. This is one part of the list.

molecular target: Galactocerebrosidase (Homo sapiens) (UniProt P54803); assay: A Novel Cell-Based Assay to Identify Small Molecules for B -Galactocerebrosidase; settings: 145M-Twi-hGALC-G270D cells (Twitcher mouse brain line with human GALC G270D), HMU-beta-Gal fluorescence, 48 h; series mostly up to 57.5 µM; activation: at the top concentration; also: 0% is about no effect; nearly all actives have a fitted effect of over 65% in size
Sequence of UniProt P54803 (P54803 whole entry, looked up): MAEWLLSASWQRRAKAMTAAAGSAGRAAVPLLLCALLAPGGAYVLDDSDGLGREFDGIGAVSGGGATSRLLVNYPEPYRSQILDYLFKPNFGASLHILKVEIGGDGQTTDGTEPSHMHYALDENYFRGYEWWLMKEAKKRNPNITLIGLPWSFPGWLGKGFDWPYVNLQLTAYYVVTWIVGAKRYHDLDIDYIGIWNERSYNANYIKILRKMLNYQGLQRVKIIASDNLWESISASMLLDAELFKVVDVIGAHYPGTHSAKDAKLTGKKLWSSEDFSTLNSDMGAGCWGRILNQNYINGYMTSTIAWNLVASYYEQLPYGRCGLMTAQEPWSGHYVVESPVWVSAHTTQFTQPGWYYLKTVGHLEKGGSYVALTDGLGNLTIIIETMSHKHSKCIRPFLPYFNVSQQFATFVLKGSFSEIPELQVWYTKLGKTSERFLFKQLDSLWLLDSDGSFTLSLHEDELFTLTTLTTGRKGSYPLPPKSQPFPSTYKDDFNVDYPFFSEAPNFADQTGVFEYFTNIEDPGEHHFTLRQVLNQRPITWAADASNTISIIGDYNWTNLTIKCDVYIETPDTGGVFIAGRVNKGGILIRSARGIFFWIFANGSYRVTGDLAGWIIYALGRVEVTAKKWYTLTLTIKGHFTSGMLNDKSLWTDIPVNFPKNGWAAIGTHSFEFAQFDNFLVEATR
Summary of the method: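 Live 145M-Twi cells (Twitcher mouse brain-derived, GALC-null) stably expressing human GALC-G270D, with a wild-type GALC line, were compound-treated. Residual GALC activity was then read as fluorescence from 0.1 mM final HMU-β-gal at pH 5.2; higher signal means activation.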

Compound | activation
CC12CN3CC(c4ccccc4)(CN(C1)C3c1ccc(O)cc1)C2=O (stereo not drawn) | inactive: -15.6%
CCn1c(C(=O)NCc2ccc(F)cc2)cc2oc3ccccc3c21 | inactive: -16.4%
Cn1c(=O)oc2cc(S(=O)(=O)NC(Cc3ccccc3)C(=O)Nc3ccc(F)cc3)ccc21 (stereo not drawn) | inactive: -7%
CCOC(=O)c1c(NC(=O)C(C)Sc2cn(CCNC(=O)c3c(F)cccc3F)c3ccccc23)sc2c1CCC2 (stereo not drawn) | inactive: -9.58%
COc1ccc2[nH]cc(CCNC(C)=O)c2c1 | inactive: -12.7%
O=C(CSc1nc2cc(C(=O)NC3CCCC3)ccc2c(=O)n1CC1CCCO1)c1cccc(Cl)c1 (stereo not drawn) | inactive: 4.64%
Cc1ccc(C)c2sc(NC(=O)c3ccc(S(=O)(=O)N4CCC(C)CC4)cc3)nc12 | inactive: -27.3%
CCN1C(=O)c2ccccc2S(=O)c2ccc(C(=O)NCc3ccc(OC)cc3)cc21 (stereo not drawn) | inactive: -9.03%
COc1ccc(CCNc2oc(/C=C/c3cc(OC)c(OC)c(OC)c3)nc2C#N)cc1OC | inactive: 0.409%
CCOC(=O)c1ccc(N2C(=O)c3n[nH]c(-c4cccs4)c3C2c2ccc(OCC)cc2)cc1 (stereo not drawn) | inactive: -14.2%
COc1ccc(OC)c(CCNC(=O)CS(=O)(=O)Cc2nc(-c3cccc(Cl)c3)oc2C)c1 | inactive: -36.8%
COc1ccccc1NC(=O)CSc1nnc(N)s1 | inactive: -15.3%
Cc1ccc(Sc2c(C)nn(-c3ccccc3)c2OC(=O)C(C)(C)C)cc1 | inactive: -18.1%
COC(=O)c1c(NC(=O)C(C)Oc2ccc(Cl)c(C)c2)sc(C)c1C (stereo not drawn) | inactive: -18.9%
COc1ccc(OC)c(NS(=O)(=O)c2cc3c(cc2Cl)N(C(C)=O)CCO3)c1 | inactive: 3.76%
CCOc1ccc(NC(=O)CC2C(=O)N(c3ccc(F)cc3)C(=O)N2Cc2ccc(OC)c(OC)c2)cc1 (stereo not drawn) | inactive: -17.8%
CCc1ccc(CNC(=O)c2cc(=O)[nH]c3ccc(S(=O)(=O)N4CCCCC4)cc23)cc1 | inactive: -15.6%
COc1ccc(CC(=O)Nc2ccc3nc(Nc4ccc(OC)cc4)cc(C)c3c2)cc1 | inactive: -10%
CCOC(=O)c1c(NC(=O)c2cc(C(C)C)on2)sc(C(C)=O)c1C | inactive: -23.4%
CCOC(=O)c1c(C)oc2nc(C)nc(Nc3ccc(C)c(Cl)c3)c12 | inactive: 6.56%
Cc1c(Cl)ccc2sc(N3CCN(C(=O)C(C)C)CC3)nc12 | inactive: -18.6%
CN(C)c1ccc(CN(Cc2ccco2)C(=O)c2ccc(C(C)(C)C)cc2)cc1 | inactive: -15.2%
Cc1ccc(-c2nc3nc(C)cc(N4CCN(c5cccc(C)c5C)CC4)n3n2)cc1 | inactive: -15.2%
COc1ccc(/C=C\c2onc(C)c2S(=O)(=O)N2CCC(C(=O)Nc3ccc(F)cc3F)CC2)cc1 | inactive: -0.957%

Compound | activation
CCOc1ccccc1NC(=O)NCc1ccc2c(c1)CCN2C(=O)c1ccccc1 | inactive: -19.9%
Cc1oc(-c2cccc(Cl)c2)nc1CSc1nncn2c1cc1occc12 | inactive: -22%
Cc1ccc2c(c1Br)C(O)(CC(=O)c1ccc(F)cc1)C(=O)N2 (stereo not drawn) | inactive: -2.11%
O=C(NCc1cccs1)c1ccc2c(=O)n3nc(Nc4ccccc4)sc3nc2c1 | inactive: -12.3%
CCOC(=O)Cn1c(=O)n(CC2CCCO2)c2nc(-c3ccccc3OC)nc(C(N)=O)c21 (stereo not drawn) | inactive: -21.6%
O=c1c2sc3ccccc3c2n(Cc2cccc(F)c2)c(=O)n1Cc1ccccc1 | inactive: 2.27%
O=C(NC1CC(=O)N(c2ccc(F)cc2)C1)c1ccc(S(=O)(=O)N2CCCCC2)cc1 (stereo not drawn) | inactive: 0.388%
Cc1c(Cl)cccc1NC(=O)CC1Oc2ccccc2NC1=O (stereo not drawn) | inactive: -13.3%
CCOc1ccccc1C(=O)N(Cc1ccco1)Cc1ccco1 | inactive: -3.14%
O=C(c1ccc2c(c1)N(Cc1ccccc1F)C(=O)c1ccccc1S2(=O)=O)N1CCC(Cc2ccccc2)CC1 | inactive: -8.8%
COc1ccc(-c2cc(C(=O)Nc3c(C(=O)c4ccc(C)cc4)oc4ccccc34)no2)cc1 | inactive: -3.79%
O=C(Cn1c(=O)n(Cc2nc(-c3ccccc3)no2)c(=O)c2ccccc21)Nc1cccc(C(F)(F)F)c1 | inactive: -21.2%
COc1ccccc1CNC(=O)C1CCCN(S(=O)(=O)c2ccc3c(c2)oc(=O)n3C)C1 (stereo not drawn) | inactive: -20.8%
Cc1cccc2sc(N(Cc3cccnc3)C(=O)CCc3ccccc3)nc12 | inactive: -47.2%
CCOC(=O)c1ccc(N2C(=O)c3[nH]nc(-c4ccccc4)c3C2c2ccc(CC)cc2)cc1 (stereo not drawn) | inactive: -13.7%
O=C(CSc1nccn1Cc1ccccc1)NCc1ccco1 | inactive: -16.9%
CCOC(=O)c1cc(-c2ccc(OC)cc2)n(CCC(=O)Nc2ccccc2OC)c1C | inactive: 2.03%
COc1ccc(Cn2c(CCC(=O)Nc3cc(OC)c(OC)c(OC)c3)nc3cccnc32)cc1 | inactive: -29.8%
CCOc1ccc(NCc2cccn2-c2nnc(N3CCC(C(=O)NCC(C)c4ccccc4)CC3)s2)cc1 (stereo not drawn) | inactive: -14.8%
CCOc1ccccc1NC(=O)CN1C(=O)COc2ccc(S(=O)(=O)N3CCOCC3)cc21 | inactive: -15.4%
O=C(CCCn1c(=O)c2cccn2c2ccccc21)Nc1cc(C(F)(F)F)ccc1Cl | inactive: -11.9%
Cn1cc(-c2cc3n(n2)CCC(=O)N3CCCC(=O)NCc2ccc(Cl)cc2)c2ccccc21 | inactive: -25.9%
CCC(CC)C(=O)OCc1cc(=O)n2nc(C3CC3)sc2n1 | inactive: 0.11%
CC1=C(c2ccc(Cl)cc2)S(=O)(=O)NC1=NCCCN1CCN(c2cc(C)ccc2C)CC1 | inactive: -16.1%

Compound | activation
CC1C(=O)Nc2ccc(S(=O)(=O)N3CCCCC3)cc2NC1=O (stereo not drawn) | inactive: 21.3%
CCN(c1ccccc1)S(=O)(=O)c1ccc(NC(=O)c2nc(SC)ncc2Cl)cc1 | inactive: -19.3%
CCN(CC)c1ccc(NC(=O)C2CCN(c3nnc(-n4cccc4)s3)CC2)c(C)c1 | inactive: -22.2%
Cc1cc(C)n(C(C)CC(=O)Nc2cccc(C(F)(F)F)c2)n1 (stereo not drawn) | inactive: -16.5%
CCc1ccccc1NC(=O)CSc1nc(-c2cccc(Cl)c2)nc2c1Cc1c(CO)cnc(C)c1O2 | inactive: -6.71%
COc1cc(/C=C(\C#N)C(=O)NCC2CCCO2)ccc1O (stereo not drawn) | inactive: -15.3%
O=C(Nc1cc(-c2nc3ccccc3o2)ccc1Cl)c1sc2c([N+](=O)[O-])cccc2c1Cl | inactive: -2.89%
CCOc1ccc(CN2CCc3nc(N4CCN(c5ccccc5OC)CC4)ncc3C2)cc1OC | inactive: -4.82%
CC(C)(C)OC(=O)N1CCC(c2c(C(=O)NCc3cccc(Cl)c3)cnn2-c2ccc(F)cc2)CC1 | inactive: -4.18%
COc1ccc(-c2nc(SCC(=O)NC3CCCC3)c(-c3ccc(F)cc3)[nH]2)cc1 | inactive: -37.6%
COc1ccc(-n2c(-c3ccc(C)cc3)cc3c2CC(C)(C)CC3=O)cc1Cl | inactive: 5.3%
Cc1ccccc1C(=O)Nc1nnc(S(=O)(=O)N(C)Cc2ccccc2)s1 | inactive: -14.5%
O=C(NCCCN1CCCCC1)c1sc2ncccc2c1-n1cccc1 | inactive: -27.2%
CC1CCN(C(=O)Cn2c(=O)n(CC3CCC(C(=O)NC(C)C)CC3)c(=O)c3sccc32)CC1 (stereo not drawn) | inactive: -14.3%
COc1ccc(S(=O)(=O)NCC(c2ccco2)S(=O)(=O)c2ccc(C)cc2)cc1F (stereo not drawn) | inactive: -0.53%
CCn1nc(C)c2c(-c3ccccc3)cc(=O)n(C(C)C(=O)NCCC(C)C)c21 (stereo not drawn) | inactive: -33.1%
CC(C)c1ccc(Cn2c(COc3ccccc3)nc3ccccc32)cc1 | inactive: -19%
O=C(COc1ccccc1F)Nc1ccc2nc(SCCOc3ccccc3)sc2c1 | inactive: -6.18%
Cc1ccc(NC(=O)Cn2c(=O)n(Cc3nc(-c4ccccc4)no3)c(=O)c3cc4c(cc32)OCO4)cc1F | inactive: -13.2%
COc1ccc(NC(=O)CC2C(=O)N(c3cccc(OC)c3)C(=O)N2CCc2cccs2)cc1 (stereo not drawn) | inactive: -11.1%
CC(=O)Nc1ccc(NC(=O)CCc2nc3cccnc3n2Cc2cccs2)cc1 | inactive: 11.8%
CC1CCN(Cc2c(O)ccc3c(=O)c(Oc4ccccc4Cl)c(C(F)(F)F)oc23)CC1 | inactive: -11.7%
Cc1ccc(NC(=O)Cn2nc(C(=O)Nc3ccc(C)cc3)ccc2=O)cc1 | inactive: -9.95%
COc1ccc(CNS(=O)(=O)c2ccc(N3CCCCS3(=O)=O)cc2)cc1 | inactive: -8.29%

Compound | activation
CCc1ccc(OC(C)C(=O)N2CCC(c3nc4ccccc4o3)CC2)cc1 (stereo not drawn) | inactive: -26%
Cc1ccc(C(=O)Nc2ccc3c(c2)n(C)c(=O)c(=O)n3C)cc1 | inactive: -15.6%
COc1ccc2c(c1)c1c(c(=O)n(Cc3ccccc3)c(=O)n1Cc1cc(C)ccc1C)n2C | inactive: -7.31%
COc1ccc(NC(=O)Cc2coc3cc(C)cc(C)c23)c(OC)c1 | inactive: -15.6%
Cc1nn2c(=O)cc(COC(=O)c3ccccc3NC(=O)c3ccccc3C)nc2s1 | inactive: -3.22%
COc1cccc(OCc2nc3ccccc3n2CCOc2ccccc2)c1 | inactive: -8.58%
Cc1ccc(CN2CCCn3nc(C(=O)NCCN(C)C)cc3C2=O)cc1 | inactive: -16%
COC(=O)c1c(NC(=O)CCCOc2ccc(C)cc2)sc2c1C(C(=O)OC)CC2 (stereo not drawn) | inactive: -14.9%
CCc1cccc(CC)c1NC(=O)c1cc(S(=O)(=O)N2CCc3ccccc32)cn1C | inactive: -20.2%
COc1ccc(-c2ccc(NS(=O)(=O)c3ccc(F)c(C(F)(F)F)c3)cc2)nn1 | inactive: 3.5%
Cc1ccc(C)c(OCCSc2nc3ccccc3n2CC(=O)N2CCOCC2)c1 | inactive: -24.7%
CCOC(=O)c1c(C)[nH]c(C)c1S(=O)(=O)N1CCC(C(=O)NCc2ccccc2)CC1 | inactive: -9.5%
O=C(Cn1c(=O)nc(-c2ccccc2)c2cc(Cl)ccc21)NCc1ccccc1 | inactive: 0.432%
Cn1nc(-c2ccc(OCC(=O)Nc3ccccc3)cc2)c2ccccc2c1=O | inactive: -7.22%
CCOC(=O)c1ccc2c(c1)N(Cc1cccc([N+](=O)[O-])c1)C(=O)c1ccccc1S2 | inactive: 1.97%
CC(C)C[C@H](NC(=O)[C@H](CCc1ccccc1)NC(=O)CN1CCOCC1)C(=O)N[C@@H](Cc1ccccc1)C(=O)N[C@@H](CC(C)C)C(=O)[C@@]1(C)CO1 | inactive: -3.13%
Cc1ccc(S(=O)(=O)N2CCCC(c3nc4c(nnn4Cc4ccc(OC(F)(F)F)cc4)c(=O)[nH]3)C2)cc1 (stereo not drawn) | inactive: -13.4%
CN(Cc1ccccc1)C(=O)c1cc2c(=O)n(C)c3ccccc3c2s1 | inactive: -7.48%
CCOC(=O)N1CCc2c(sc3c2c(=O)n(Cc2ccccc2)c(=O)n3Cc2c(F)cccc2Cl)C1 | inactive: -1.72%
O=C1CC(c2nc3ccccc3n2Cc2c(F)cccc2Cl)CN1c1cccc(C(F)(F)F)c1 (stereo not drawn) | inactive: -0.552%
CSc1cccc(N2C(=O)N(Cc3ccc([N+](=O)[O-])cc3)c3ccccc3S2(=O)=O)c1 | inactive: 3.27%
